Measurements: PubChem BioAssay AID360 (National Center for Advancing Translational Sciences (NCATS), 2006)
Out of some 48,000 compounds screened, about 550 (1.1%) were called active. About 4% were inconclusive and are not listed. Rule as the data show it: active = potency below about 15 µM; inconclusive = mostly about 16 µM to 33 µM; inactive = weaker than that. Some of the results follow.

molecular target: Lysosomal acid glucosylceramidase (Homo sapiens) (UniProt P04062); assay: Glucocerebrosidase; details: purified enzyme, resorufin glucoside fluorescence (screen aimed at inhibitors), 20 min;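 also: the screen sought inhibitors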
Method in brief: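 Compounds titrated against 0.2 nM normal enzyme, 30 uM resorufin beta-D-glucopyranoside substrate, citrate/phosphate buffer with taurocholate and tween-20, pH 5.9. Reaction ran 20 min at room temperature; fluorescence (Ex 548/Em 600) gave AC50.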
Potency is read from the fitted curve at half-maximal effect.

UniProt P04062, sequence (P04062 whole entry, looked up): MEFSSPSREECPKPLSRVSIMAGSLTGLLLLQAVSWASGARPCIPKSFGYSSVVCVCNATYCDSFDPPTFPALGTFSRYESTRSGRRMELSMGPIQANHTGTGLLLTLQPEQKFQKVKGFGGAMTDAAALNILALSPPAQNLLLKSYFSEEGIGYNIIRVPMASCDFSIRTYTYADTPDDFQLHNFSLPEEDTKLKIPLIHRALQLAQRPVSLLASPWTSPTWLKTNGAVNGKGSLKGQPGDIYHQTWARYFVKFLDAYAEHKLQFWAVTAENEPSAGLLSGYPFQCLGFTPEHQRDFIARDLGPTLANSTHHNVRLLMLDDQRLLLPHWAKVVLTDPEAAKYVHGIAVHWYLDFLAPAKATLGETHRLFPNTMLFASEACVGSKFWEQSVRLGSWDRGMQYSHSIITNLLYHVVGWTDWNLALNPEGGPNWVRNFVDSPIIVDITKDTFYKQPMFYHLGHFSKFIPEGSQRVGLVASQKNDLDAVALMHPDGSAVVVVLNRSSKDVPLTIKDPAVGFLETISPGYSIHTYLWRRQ

Potency, inactive:
CC(N=c1ccccn1C(=O)Nc1ccc(Cl)cc1)c1ccco1 (configuration not stated) > 76.9 µM
CC(C(=O)NC1CCCC1)N(Cc1ccco1)C(=O)c1snc(C(=O)NC2CCCC2)c1N (configuration not stated) > 76.9 µM
CC(=O)N1CCc2cc(S(=O)(=O)NC(C(=O)NC3CCCc4ccccc43)C(C)C)ccc21 (configuration not stated) > 76.9 µM
CCOC(=O)c1sc2nc(CSc3nc4ccccc4n3CC)[nH]c(=O)c2c1C > 76.9 µM
CC(=O)Nc1ccc2nc(-c3ccccn3)[nH]c2c1 > 76.9 µM
C=CCn1c(SCC(=O)NC(=O)NCc2ccco2)nc2sc(CC)cc2c1=O > 76.9 µM
Cc1oc(-c2ccc(Cl)cc2)nc1CN1CCC(C(=O)NCc2cccnc2)CC1 > 76.9 µM
CCOc1nc2c(c(=O)n(C)c(=O)n2C)n1Cc1ccccc1Cl > 76.9 µM
CC(C)NC(=O)Cn1c(SCC(=O)N2CCCc3ccccc32)nc2ccccc21 > 76.9 µM
CSC1=C(C#N)C(c2cccs2)CC(=O)N1C (configuration not stated) > 76.9 µM
Cc1cc(C)c(OCC(=O)Nc2ccc3c(c2)OCO3)cc1C > 76.9 µM
Cc1cc(C)n(-c2ccc(C(=O)Nc3nc4ccccc4s3)cc2)n1 > 76.9 µM
O=C(O)c1ccc(CSc2ncn[nH]2)cc1 > 76.9 µM
CC(=O)NC(=S)c1c(N)n(Cc2ccccc2)c(=O)n(C)c1=O > 76.9 µM
Clc1ccc(Cl)c(OCCN2CCOCC2)c1 > 76.9 µM
CC(C)(C)n1ncc2c(=O)n(CC(=O)N3CCCCCC3)cnc21 > 76.9 µM
CC(OCC(O)CN(C)CCOc1ccccc1)c1ccc(Cl)cc1 (configuration not stated) > 76.9 µM
COc1ccc(OC)c(CNC(=O)Cc2c(C(=O)O)[nH]c3ccccc23)c1 > 76.9 µM
COCCCNC(=O)C1CCN(c2ncccn2)CC1 > 76.9 µM
CCS(=O)(=O)/N=C(\N)c1ccccc1 > 76.9 µM
COc1ccc(O)c(-c2cn[nH]c2-c2cccs2)c1 > 76.9 µM
O=C(Cn1nc(C(F)(F)F)c2c1CCC2)NCc1ccc(F)cc1 > 76.9 µM
Cc1ccc2cc(CN(Cc3nnnn3C3CCCCC3)CC3CCCO3)c(=O)[nH]c2c1 (configuration not stated) > 76.9 µM
Cc1cc(NC(=O)COC(=O)C2CCN(S(=O)(=O)c3ccc(Cl)cc3)CC2)no1 > 76.9 µM
Cc1ccc(C(=O)CCNc2ccc(F)c(Cl)c2)o1 > 76.9 µM
O=C(c1ccccc1Oc1nnnn1-c1ccccc1)N1CCOCC1 > 76.9 µM
O=C(O)CC(O)C(=O)O (configuration not stated) > 76.9 µM
Cc1nnc(SCc2cccc(Oc3ccccc3)c2)n1N > 76.9 µM
CCn1c(=O)c2cc(S(=O)(=O)NCc3ccccc3)ccc2n(CC)c1=O > 76.9 µM
CCOc1cccc(CN2CCN(c3cccc(C(F)(F)F)c3)CC2)c1O > 76.9 µM
O=C(c1cc2cc(Cl)cc(Cl)c2oc1=O)N1CCOCC1 > 76.9 µM
COc1ccc(OCC(=O)N2CCN(c3nnc(-c4ccccc4)c4ccccc34)CC2)cc1 > 76.9 µM
O=C(CCCC(=O)N(CC(=O)NC1CCCC1)Cc1ccc2c(c1)OCO2)Nc1ccccn1 > 76.9 µM
Cc1cc(C)nc(-n2nc(C)cc2NC(=O)CN2CCc3ccccc3C2)n1 > 76.9 µM
COC(=O)c1[nH]c(C)c(/C(O)=C2\C(=O)C(=O)N(CCN(C)C)C2c2ccc(C)o2)c1C (configuration not stated) > 76.9 µM
CCOC(=O)c1ccc(NC(=O)Nc2ccc3c4c(cccc24)C(=O)N3CC)cc1 > 76.9 µM
O=C(Nc1ccc2c(c1)OCO2)C(c1ccccc1)N1CCC2(CC1)OCCO2 (configuration not stated) > 76.9 µM
CCOC(=O)C1CCN(C(=O)CN(C)S(=O)(=O)c2cc(C)ccc2OC)CC1 > 76.9 µM
CCOCCCNC(=O)C1CCC(CNS(=O)(=O)c2ccc(F)cc2)CC1 (configuration not stated) > 76.9 µM
CCN1C(=O)c2cccc3c(S(=O)(=O)NCc4ccco4)ccc1c23 > 76.9 µM
CC(=O)OC(C(=O)NCc1ccc2c(c1)OCO2)c1ccccc1Cl (configuration not stated) > 76.9 µM
CCOC(=O)Cc1cc(=O)n(-c2nc3ccccc3s2)[nH]1 > 76.9 µM
COc1ccc(OC)c(C(=O)c2oc3ccccc3c2NC(C)=O)c1 > 76.9 µM
CCn1c(=O)c2ccccc2n2c(SCC(=O)NCc3cccs3)nnc12 > 76.9 µM
Cc1cccn2c(=O)c(C=NCc3ccccc3)c(NCCO)nc12 > 76.9 µM
COc1ccc(C(C)(C)C)cc1NC(=O)c1ccoc1C > 76.9 µM
COc1ccccc1-c1noc(-c2ccccc2)n1
Cc1cccc(NC(=O)CN(C)S(=O)(=O)c2cnc[nH]2)c1 > 76.9 µM
COc1ccccc1NC1SC(=O)N(c2ccccc2)C1=O (configuration not stated) > 76.9 µM
C=C(C)c1cccc(C(C)(C)NC(=O)Nc2ncccn2)c1 > 76.9 µM
CC(=O)c1c(C)nn(CCC(=O)O)c1C > 76.9 µM
COC(=O)c1ccccc1NC(=O)c1ccccc1OC > 76.9 µM
O=c1[nH]n(CC2COC3(CCCCC3)O2)c(=O)c2ccccc12 (configuration not stated) > 76.9 µM
COc1ccc(CC(=O)NCc2nnc(SCCOc3ccccc3)n2C)cc1 > 76.9 µM
COc1cccc(Cn2c(=S)[nH]c3ccc(N4CCOCC4)cc3c2=O)c1 > 76.9 µM
O=c1c2ccccc2nc(-c2ccco2)n1/N=C/c1ccco1 > 76.9 µM
O=C(Nc1ccccc1C(F)(F)F)c1cccnc1 > 76.9 µM
Cc1c(C(=O)CN2CCOCC2)[nH]c2ccccc12 > 76.9 µM
O=S(=O)(O)c1nnc2sc3ccccc3n12 > 76.9 µM
Cc1c(NC(=O)N2CCCCCC2)c(=O)n(-c2ccccc2)n1C > 76.9 µM
COc1ccc(S(=O)(=O)N2CCC(C(=O)NCc3cccc(OC)c3)CC2)cc1 > 76.9 µM
Cc1ccc(Cl)cc1N1CCN(C(=O)Cn2ccc3ccccc3c2=O)CC1 > 76.9 µM
Cc1nc2oc3c(NCc4ccccn4)ncnc3c2c2c1COC(C)(C)C2 > 76.9 µM
COc1ccccc1CNS(=O)(=O)c1cc(C)ccc1OC > 76.9 µM
CC1(C)Oc2ccc(C(=O)N3CCOCC3)cc2N(CC(=O)N2CCOCC2)C1=O > 76.9 µM
O=C(Cn1nnc2ccccc21)C1CC1 > 76.9 µM
Cc1ccc(S(=O)(=O)C2(C(=O)O)CCCC2)cc1C > 76.9 µM
Cc1cc2ncn(-c3ncnc4sc(C)c(C)c34)c2cc1C > 76.9 µM
O=C(O)CSc1nnc(Cn2nnc3ccccc32)n1CCc1ccccc1 > 76.9 µM
CC1=C(C(=O)N(C)C)C(c2cccc(Cl)c2)NC(=O)N1 (configuration not stated) > 76.9 µM
Cc1nc2nc(-c3ccccc3)[nH]n2c(=O)c1Cc1ccccc1 > 76.9 µM
COc1cccc(Nc2nnc(SCC(=O)N3CC(C)OC(C)C3)s2)c1 (configuration not stated) > 76.9 µM
O=S(=O)(NCc1ccccc1)c1ccc(S(=O)(=O)N(Cc2ccccn2)Cc2ccco2)cc1 > 76.9 µM
CCOC(=O)c1c(Nc2ccccc2N)cc(C)nc1C > 76.9 µM
Cc1cnn(C(=S)NCc2ccco2)c1 > 76.9 µM
O=C1Nc2cc(C(=O)N3CCN(Cc4ccccc4)CC3)ccc2SC1N1CCOCC1 (configuration not stated) > 76.9 µM
CCN(CC)c1ccc2oc(=O)c(C)nc2c1 > 76.9 µM
Cc1nc2ccccc2c2oc(C(=O)NCc3ccccn3)cc12 > 76.9 µM
O=C(OCCOCCN=C1NS(=O)(=O)c2ccccc21)c1ccncc1 > 76.9 µM
Cc1ccc(OCC(=O)N2CCCCCC2)c(C)c1 > 76.9 µM
Cc1ccc(Cn2ccc(NC(=O)c3cc(-c4ccccc4)on3)n2)cc1 > 76.9 µM
COC(=O)CSc1nnc(-c2cccnc2)n1-c1cc(OC)cc(OC)c1 > 76.9 µM
Cc1ccc(-n2c(N)c(C(=O)N3CCOCC3)sc2=S)c(C)c1 > 76.9 µM
CCOC(=O)c1oc2cccc(OCC(O)CNC(C)C)c2c1C (configuration not stated) > 76.9 µM
CC(C)Cn1c(NCCN(C)C)nc2c1c(=O)[nH]c(=O)n2C > 76.9 µM
CCCSc1nc2c(c(=O)[nH]c(=O)n2C)n1CCc1ccccc1 > 76.9 µM
COc1ccc(CCN2C(=O)CC(Sc3ncccc3C(=O)O)C2=O)cc1OC (configuration not stated) > 76.9 µM
CCCCOCCCn1c(-c2ccco2)nc2nc3ccccc3nc21 > 76.9 µM
CCCn1c(SCc2ccc(Cl)cc2)nc2c1c(=O)[nH]c(=O)n2C > 76.9 µM
CSC(=NCc1cccnc1)NS(=O)(=O)c1cccs1 > 76.9 µM
NC(=O)NC(=O)COC(=O)c1ccccc1Oc1ccccc1 > 76.9 µM
CCOc1cc(C2C(C(=O)O)c3cc(OCC)c(OCC)cc3C(=O)N2C)ccc1O (configuration not stated) > 76.9 µM
